PMC4336329 (PLoS ONE, 2015)
Hit rate of the full screen: of about 310,000 compounds, about 14,000 (4.5%) showed an effect of 50% or more. Effects have a minus sign here. The list shows a part of the results.

Target: human ether-à-go-go-related gene (hERG) potassium channel (human, UniProt Q12809)
Experiment: primary screen, population patch clamp on CHO cells stably expressing hERG
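Also: peak tail current of the secondary pulse compared with the same well before compound.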

human ether-à-go-go-related gene (hERG) potassium channel, sequence (Q12809 whole entry, looked up): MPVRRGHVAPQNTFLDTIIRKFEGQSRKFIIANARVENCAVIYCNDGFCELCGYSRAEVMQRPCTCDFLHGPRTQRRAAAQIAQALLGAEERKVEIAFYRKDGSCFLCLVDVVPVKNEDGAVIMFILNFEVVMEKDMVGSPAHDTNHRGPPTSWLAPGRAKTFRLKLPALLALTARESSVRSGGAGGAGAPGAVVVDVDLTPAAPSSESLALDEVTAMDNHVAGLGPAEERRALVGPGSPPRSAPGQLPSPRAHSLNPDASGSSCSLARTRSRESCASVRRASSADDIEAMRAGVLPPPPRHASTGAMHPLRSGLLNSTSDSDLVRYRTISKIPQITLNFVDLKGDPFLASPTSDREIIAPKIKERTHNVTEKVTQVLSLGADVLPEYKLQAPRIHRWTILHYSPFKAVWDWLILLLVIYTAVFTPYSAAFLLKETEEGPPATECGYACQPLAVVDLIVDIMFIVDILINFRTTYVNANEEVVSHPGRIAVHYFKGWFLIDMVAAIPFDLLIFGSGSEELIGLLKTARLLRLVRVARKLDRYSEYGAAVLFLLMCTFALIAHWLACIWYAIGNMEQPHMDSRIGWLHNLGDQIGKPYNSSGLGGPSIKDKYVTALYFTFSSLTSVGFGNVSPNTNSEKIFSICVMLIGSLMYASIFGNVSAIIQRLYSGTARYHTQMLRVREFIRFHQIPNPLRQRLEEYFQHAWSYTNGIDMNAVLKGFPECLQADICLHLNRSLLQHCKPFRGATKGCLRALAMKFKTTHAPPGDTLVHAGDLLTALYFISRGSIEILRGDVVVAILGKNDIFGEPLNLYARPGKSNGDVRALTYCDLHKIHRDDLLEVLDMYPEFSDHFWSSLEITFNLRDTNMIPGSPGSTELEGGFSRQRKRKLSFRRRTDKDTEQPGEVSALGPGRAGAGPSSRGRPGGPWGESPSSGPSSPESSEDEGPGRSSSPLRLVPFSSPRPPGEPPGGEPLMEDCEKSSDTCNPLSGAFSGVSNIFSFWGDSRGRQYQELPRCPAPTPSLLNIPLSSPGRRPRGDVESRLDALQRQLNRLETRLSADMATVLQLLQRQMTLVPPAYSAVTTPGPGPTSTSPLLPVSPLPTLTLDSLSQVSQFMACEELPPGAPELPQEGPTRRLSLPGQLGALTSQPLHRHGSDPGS

SMILES | hERG current change (%, negative = inhibition) at 10uM [%]
CN1C(=O)C(CC(=O)NCC2CCCCC2)SC1=Nc1ccccc1 (centres unmarked) | 2.41
COc1cccc(COc2ccccc2C2Nc3ccc(Br)cc3C(=O)N2NC(=O)c2ccncc2)c1 (centres unmarked) | -4.31
COc1cccc(-c2cc(C(=O)NCc3cccs3)no2)c1 | 18
Cc1ccc(S(=O)(=O)NCCC(=O)NCc2ccc3c(c2)OCO3)cc1C | -11.6
CC(NC(=O)c1cnc2n(c1=O)CCS2)c1ccccc1 (centres unmarked) | 3.42
CC(C)CCNC(=O)CN(Cc1ccccc1Cl)C(=O)CCC(=O)Nc1ccccn1 | -10.1
Cc1ccc2nc(NS(=O)(=O)c3cn(C)nc3C)sc2c1 | 0.0677
Cc1cc(NC(=S)NC(=O)/C=C/c2ccc(S(=O)(=O)N3CCOCC3)cc2)ccc1Br | 17.8
O=C(c1coc2ccccc2c1=O)N1CCN(c2cccc(C(F)(F)F)c2)CC1 | -11.2
CN(CC(N)=O)S(=O)(=O)c1ccc(F)cc1 | -15.7
Cc1cc(NC(=O)c2cc(CC(C)C)on2)no1 | 7.66
Nc1nc2c(ncn2CCC(CO)CO)c(=O)[nH]1 | -2.83
COc1ccc(N2CCN(C(=O)C(NC(=O)c3c(F)cccc3F)C(C)C)CC2)cc1 (centres unmarked) | 10.5
Cc1ccc(Cl)cc1NS(=O)(=O)c1cc2[nH]c(=O)c(=O)[nH]c2cc1C | 23.6
COC(=O)COc1ccc2c(-c3cccc([N+](=O)[O-])c3)cc(=O)oc2c1 | -31.8
CCC(=O)Nc1ccc(C(=O)CSc2nnc(-c3cccnc3)o2)cc1 | 0.499
CCSC1=C(C#N)C(c2ccc(OC)c(OC)c2)CC(=O)N1 (centres unmarked) | 5.77
CCc1nnc(NC(=O)c2csc3c2CCC(C)C3)s1 (centres unmarked) | 27.7
COc1ccc(Cl)cc1C(=O)Nc1ccc(NC(=O)C(C)C)cc1 | 213

SMILES | hERG current change (%, negative = inhibition) at 10uM [%]
CCN1CCN(C(=O)c2nn(-c3ccc(OC)cc3)c(=O)c3c2c2ccccc2n3C)CC1 | -4.67
CC(C)NC(=O)c1ccccc1NC(=O)CCS(=O)(=O)Cc1ccccc1 | 0.824
CC(C)c1nnc(NC(=O)CSc2nc3ccccc3[nH]2)s1 | 3.98
CC(=O)c1sc(NC(=O)c2ccccc2F)nc1-c1ccccc1 | 18.7
O=C(CNc1n[nH]c(=O)[nH]c1=O)N/N=C/C1CC=CCC1 (centres unmarked) | 1.91
COc1ccc(NC(=O)CSc2nnc(-c3ccccc3Cl)n2Cc2ccco2)c(OC)c1 | -29.2
COc1ccc(OC)c(CN2CCC(CNC(=O)Nc3cccc(Cl)c3)CC2)c1 | -60.8
Cc1noc(C)c1COc1ccccc1C(=O)N1CCN(S(=O)(=O)c2cccc([N+](=O)[O-])c2)CC1 | -31.3
Cc1ccc(Cn2c(O)c(N=NC(=S)Nc3ccccc3F)c3ccccc32)cc1 | 14.1
COc1ccc(CCNC(=O)c2oc3ccccc3c2C)cc1 | -22.9
Cc1ccc(C(=O)Nc2ccccc2N2CCCCC2)cc1 | -23.7
COc1cc2[nH]c(=S)nc(NCCC(C)C)c2cc1OC | -16.2
Cn1ccnc1C(=O)c1ccc(S(=O)(=O)N2CCCC2)cc1 | 33.9
CCn1c(CNC(=O)c2ccco2)nnc1SCC(=O)Nc1cc(C)c(C)cc1Br | -16.6
Cl.OC(c1ccc(F)cc1)(C1CCCCC1)C(CN1CCOCC1)c1ccccc1 (centres unmarked) | 12.1
COCCNC(=O)C1CC(c2cccc(OC)c2)=NO1 (centres unmarked) | -0.681
Cc1cc(C)c(S(=O)(=O)N2CCCCC2C(=O)O)c(C)c1 (centres unmarked) | 20.4
COc1cccc2c(=O)n(CC(=O)NCCc3ccccc3)ccc12 | 7.56
CC(=O)c1cccc(NC(=S)N2CCC(Cc3ccccc3)CC2)c1 | 17.6

SMILES | hERG current change (%, negative = inhibition) at 10uM [%]
CCOc1ccc(S(=O)(=O)Nc2ccc(C(=O)NCC(c3ccccc3)N(C)C)cc2)cc1 (centres unmarked) | -44.9
Cc1ccccc1NC(=O)NCCN1C(=O)C2C3C=CC(C3)C2C1=O (centres unmarked) | 15
O=C(Nc1nc(-c2ccccn2)cs1)c1ccc(Br)s1 | 7.34
CCOC(=O)c1c(NC(=O)c2c(Br)cnn2CC)sc(C)c1C | 13.3
Cc1ccc(C(NC(=O)N2CC(C)OC(C)C2)C(Cl)Cl)cc1F (centres unmarked) | -3.68
CCOC(=O)c1c(NC(=O)C(=O)N/N=C/c2ccc(OCC)cc2)sc2c1CCCCC2 | 4.71
Cc1c(C(=O)N2CCCCC2)c(S(=O)(=O)NCc2ccc(N(C)C)cc2)c(C)n1C | 14
O=[N+]([O-])c1cccc(C(=Nc2ccc(Cl)cc2)NO)c1 | -11.5
CCOC(=O)C1(Cc2ccccc2)CCCN(C(=O)C=C(C)C)C1 (centres unmarked) | 13.2
COc1ccc([C@@H]2[C@@H]3C(=O)N(C(C)(C)C)C(=O)[C@@H]3[C@]3(C)C(=O)N(c4ccccc4)C(=O)N23)cc1 | -19.4
Cc1nnsc1C(=O)Nc1ccc(S(=O)(=O)N2CCC(C)CC2)cc1 | 23.7
Cc1noc(NC(=O)c2cccc(C(F)(F)F)c2)c1Cl | 3.3
CC(=O)OCC1OC(n2cc(F)c(=O)[nH]c2=O)C(OC(C)=O)C1OC(C)=O (centres unmarked) | 1.38
CC(C)C[C@H](NC(=O)NCc1ccc(F)cc1)C(=O)O | -0.885
COc1cc(C2C(C(=O)c3ccc(C)o3)=C(O)C(=O)N2CCCn2ccnc2)cc(OC)c1OC (centres unmarked) | -9.57
Cc1ccnc(NC(=O)CNC(=O)c2ccc(C)s2)c1 | 3.94
Cc1ccc(NS(=O)(=O)c2coc(C(N)=O)c2)cc1F | 3.11
O=C(c1ccc(S(=O)(=O)N2CCOCC2)cc1)N1CCOCC1 | 12
